Where “and” joins values, the source holds several entries; their conditions need not be identical. Equal entries are not always repeated. About 25,000 (6.9%) of roughly 360,000 compounds were called active. Inconclusive results, whose numbers are uncertain, are shown with a selection of clear calls. Calls come from the whole dose curve; as a rule, active = well fitted inhibition curve with a large enough effect; inconclusive = small, poorly fitted or top-dose-only effect; inactive = flat fitted curve, though single readings scatter. Where the call is inconclusive, the potency comes from a doubtful curve fit.
Molecular target: Luciferin 4-monooxygenase (Photinus pyralis) (UniProt P08659)
Sequence of UniProt P08659 (P08659 whole entry, looked up): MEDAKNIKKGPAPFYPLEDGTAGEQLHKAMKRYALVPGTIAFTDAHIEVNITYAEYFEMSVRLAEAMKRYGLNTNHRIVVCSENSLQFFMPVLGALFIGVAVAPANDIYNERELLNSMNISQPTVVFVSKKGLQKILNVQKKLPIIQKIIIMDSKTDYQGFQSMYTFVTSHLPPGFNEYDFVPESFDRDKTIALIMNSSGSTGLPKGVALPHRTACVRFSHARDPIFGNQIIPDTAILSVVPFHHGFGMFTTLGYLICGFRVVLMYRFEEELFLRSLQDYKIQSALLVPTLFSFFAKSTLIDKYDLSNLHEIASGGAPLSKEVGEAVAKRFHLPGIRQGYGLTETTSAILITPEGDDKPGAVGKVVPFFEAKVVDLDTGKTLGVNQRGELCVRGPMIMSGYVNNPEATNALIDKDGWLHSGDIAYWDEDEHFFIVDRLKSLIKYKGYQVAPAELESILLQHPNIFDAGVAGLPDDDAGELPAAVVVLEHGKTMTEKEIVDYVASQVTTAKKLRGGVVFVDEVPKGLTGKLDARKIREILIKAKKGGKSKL
Test: qHTS profiling assay for firefly luciferase inhibitor/activator using purifed enzyme and Km concentrations of substrates (counterscreen for miR-21 project); note: nearly all actives have a fitted effect of over 55% in size;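 for activity change, negative = inhibition: plate controls were vehicle for no effect and reference inhibitor for full effect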
Settings: purified FLuc, luminescence inhibition; series mostly up to 57.5 µM; activity change, negative = inhibition: at the top concentration
Summary of the method: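 Purified P. pyralis luciferase, 10 nM final, with Km-level 10 uM D-luciferin and 10 uM ATP in 50 mM Tris acetate pH 7.5, 10 mM Mg acetate, 0.01% Tween-20, 0.05% BSA; 6-point qHTS titration about 60 µM downward; luminescence read.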
Potency is the fitted concentration of half-maximal effect; tags give direction and shape of the fitted curve.

Compound	activity change, negative = inhibition	Potency
Cc1ccccc1NC(=O)CCNC(=O)Cn1ccc2ccccc2c1=O	inactive: 0.217%	–
O=C(Nc1ccc(Cl)cc1)Nc1ccc(Oc2cccnc2)nc1	inactive: -28.9%	–
COc1cc(NC(=O)c2cc3ccc4cccnc4c3[nH]2)cc(OC)c1OC	–	inconclusive: 12 µM [inhibitor, partial curve]
CCOC(=O)c1ccc(NC(=O)CC2C(=O)N(c3ccc(C)cc3)C(=O)N2C2CCCC2)cc1 (configuration not stated)	inactive: -1.37%	–
CC(C)(C)c1csc(NC(=O)C2=COCCO2)n1	–	active: 9.53 µM
CC(C)C(=O)Nc1ccc(C(=O)Nc2nnc(C(C)(C)C)s2)cc1	inactive: -7.05%	–
COc1cccc(CN(C(=O)c2cnccn2)C(C(=O)NC2CCCCC2)c2cc(OC)c(OC)c(OC)c2)c1 (configuration not stated)	inactive: -1.36%	–
COc1cc(OC)cc(C(=O)Nc2ccc3c(c2)OCCO3)c1	–	active: 5.36 µM and active: 3.01 µM
Nc1nc(SCC(=O)NCCOCCO)nc2sc3c(c12)CCCC3	–	active: 26.9 µM
CC(=O)c1sc(Nc2nc(C)cc(C)n2)nc1C	inactive: -7.81%	–
Cc1cccc(-c2nsc(SCC(=O)NCc3ccco3)n2)c1	–	inconclusive: 26.9 µM [inhibitor, single point]
COc1ccc(-c2cc(C)no2)cc1S(=O)(=O)Nc1cccc(CN2CCCC2)c1	inactive: 0.634%	–
N/C(=N\OC(=O)c1ccccc1Cl)c1ccccc1	–	active: 0.379 µM
COC(=O)c1ccc(CSc2nnc(N)s2)cc1	–	inconclusive: 23.9 µM [inhibitor, single point]
COc1ccccc1CCNC(=O)C(=O)NCC(c1ccco1)S(=O)(=O)c1ccccc1 (configuration not stated)	inactive: -9.29%	–
Cc1c(OCc2nn[nH]n2)ccc2c3c(c(=O)oc12)CCC(C)C3 (configuration not stated)	–	inconclusive: 26.9 µM [inhibitor, partial curve, poor fit]
Cn1c(=O)n(C)c2cc(NC(=O)c3cc4ccccc4o3)ccc21	–	inconclusive: 21.3 µM [inhibitor, single point]
O=C(CN1CCC2(CC1)OCCO2)c1c[nH]c2ccccc12	–	inconclusive: 37.9 µM [inhibitor, partial curve, poor fit]
Cc1nc2ccccc2c(=O)n1NC(=O)c1ccc(Cl)c(Cl)c1	inactive: -1.24%	–
Cc1ccccc1C(=O)Nc1cccc(N)c1	–	inconclusive: 21.3 µM [inhibitor, partial curve, poor fit]
CN(Cc1nc(-c2cccs2)no1)CC(O)c1ccccc1 (configuration not stated)	–	inconclusive: 30.1 µM [inhibitor, partial curve, poor fit]
CN(C)S(=O)(=O)c1ccc(C(=O)Nc2ccccc2C(=O)O)cc1	–	active: 12 µM
Cc1ccc(NC(=O)CCN2C(=O)C3CCCCC3C2=O)c(O)c1 (configuration not stated)	inactive: 1.86%	–
Cc1cc2nn(-c3ccc(F)cc3)nc2cc1N	–	active: 0.757 µM

Compound	activity change, negative = inhibition	Potency
COc1ccc(/C=N/NC(=O)c2cccc(S(=O)(=O)N3CCCC3)c2)cc1O	–	inconclusive: 26.9 µM [inhibitor, single point]
COC(=O)c1c(SCC(=O)Nc2cccc(Cl)c2C)[nH]c2ccccc2c1=O	–	inconclusive: 37.9 µM [inhibitor, partial curve, poor fit]
Cc1ccc(NC(=S)Nc2ccc3nc(-c4ccccn4)c(-c4ccccn4)nc3c2)cc1C	–	inconclusive: 23.9 µM [inhibitor, partial curve, poor fit]
CCOC(=O)c1ccc(OCC(=O)c2ccc(O)cc2O)cc1	–	active: 6.75 µM
Cc1ccc(NC(=S)N2CCCCC2)cc1C	–	active: 23.9 µM
Cc1cc(C(=O)CN2C(=O)c3ccccc3S2(=O)=O)c(C)n1CC1CCCO1 (configuration not stated)	–	active: 7.57 µM
COc1ccccc1N1CCN(C(=O)c2ccc(-c3ccc(Cl)cc3)o2)CC1	–	inconclusive: 30.1 µM [inhibitor, partial curve, poor fit]
Cn1cc(/C=C2\SC(=S)N(NC(=O)c3ccccc3)C2=O)c2ccccc21	–	inconclusive: 4.26 µM [inhibitor, partial curve, poor fit]
O=C(COC(=O)c1ccccc1)Nc1ccccc1Br	–	inconclusive: 26.9 µM [inhibitor, single point]
O=C(Nc1ccc(OCC(=O)N2CCOCC2)cc1)c1cncc(Br)c1	–	inconclusive: 30.1 µM [inhibitor, partial curve, poor fit]
COc1ccc2nc(NC(=O)CSc3nnnn3C3CCCCC3)sc2c1	–	inconclusive: 26.9 µM [inhibitor, single point]
Cc1ccc(-c2nnn(CCC(=O)NC(C)(C)C)n2)cc1	–	inconclusive: 26.9 µM [inhibitor, single point]
C=CCc1ccc(OCCCCOc2ccc(C(=O)O)cc2)c(OC)c1	–	active: 13.5 µM
COc1ccc(N=C2C(=O)N3CCCc4cccc2c43)cc1	–	inconclusive: 23.9 µM [inhibitor, partial curve, poor fit]
Cc1nn(-c2ccccc2)c2sc(C(=O)N3CCc4ccccc4C3)cc12	inactive: -7.71%	–
Cc1ccc(-n2c(C)cc(C(=O)COC(=O)c3c(C)noc3C)c2C)cc1	–	active: 3.38 µM
O=C(/C=C/c1ccccc1)N1CCN(c2ccc([N+](=O)[O-])c(N3CCOCC3)c2)CC1	–	inconclusive: 23.9 µM [inhibitor, partial curve]
O=Cc1c(-c2ccccc2)nc2ccccn12	–	inconclusive: 37.9 µM [inhibitor, partial curve, poor fit]
COc1ccc(-n2nnc(C(=O)Nc3ccccc3F)c2N)cc1	–	active: 2.39 µM
C/C(=N\NC(=O)c1c(Cl)c(C)nn1C)c1cccc(NC(=O)COc2ccc(Cl)cc2)c1	–	active: 8.49 µM
O=C1CSC(=S)N1/N=C/c1cc(Br)ccc1O	–	inconclusive: 23.9 µM [inhibitor, single point]
Cc1ccc(NC(=O)c2cccs2)cc1NC(=O)c1cccnc1	–	inconclusive: 19 µM [inhibitor, partial curve, poor fit]
COC(c1ccccc1)c1nnc(CCC(=O)N(C)CCCC2CCCC2)o1 (configuration not stated)	–	inconclusive: 23.9 µM [inhibitor, single point]
